This passage reports binding signal results from publication PMC12136788.

The other results are listed elsewhere or left out.

Sequences and labels used below:
B1: chr5:132203191:132203192:+_ENSG00000164405_ENST00000378667|hu_hu|motif|central (ssRNA)
RNA: GGGAGUUCUACAGUCCGACGAUCAUUCUUCCUCUUGGAUCUCUCGAACUCUUCAGUCCCCCAUGUGUAGAUAAGAUAAAACACGGCAAACUGCGGCACCACGCGAAAGAAAGACUCCCGAAUGCGGCGCAGAACAUUGGGGAUCAACAGAGGAUUGAGCAUCA
B2: chr8:71331417:71331418:+_ENSMUSG00000031864_ENSMUST00000110241|mus_mus|FALSE|FALSE (ssRNA)
RNA: GGGAGUUCUACAGUCCGACGAUCCACCAGCAUCGUGGAGUAGAGCACUUGGUUUUUAUAGUUGUUGUGAGCUUCGCUGUCAAAGCUGUUCAUGUAUCUGCAGAGCUCCUUCAUCCGGUGCAGCAGGUCACUGCAGCUUCGUCUCAACAGAGGAUUGAGCAUCA
B3: chr7:141438946:141438947:+_ENSG00000106028_ENST00000265304|hu_mus|hu_hu_hu_mus_True|18_88 (ssRNA)
RNA: GGGAGUUCUACAGUCCGACGAUCGACGAAAUACCUGUAACACAGGUGAAACAUGGCUGGCUUCUGUUUUUCUUACAACCUAAUCUUUAGGCUUUUCCUAAAGGAAAGAAAGAAAAGGCCCAGCCACUAAAUCAAGAAACUACACAACAGAGGAUUGAGCAUCA
B4: 101114645_101114765_1358_CDS_ENSMUSG00000043154_ENSMUST00000075941|mouse|control|control (ssRNA)
RNA: GGGAGUUCUACAGUCCGACGAUCCACCUCAUUGCCACUUCCCUCACUGAUACUACCUCCCGACUUUUUCUUUAUGCAUUGUUUUAUGAUGUCUGUGCAUUUUUUCAAAUCUUCAGAGCAUUUCAGUAAGAUGUCCAAGCACAUCAACAGAGGAUUGAGCAUCA
B5: 20143393_20143513_3609_3pUTR_ENSG00000173674_ENST00000379607|human|control|control (ssRNA)
RNA: GGGAGUUCUACAGUCCGACGAUCACAUUCUCCAAAUUGCUCAGUUCAUUCUAUACCUGAGAGUCUUGUGUCUUUUCACAUUUUGCUCUUUUCUGAAUAGGAAGAAAAAAAGCAAAGAUAAAAAGGAUGGUAGUUUAGGGUAAACAACAGAGGAUUGAGCAUCA
B6: 60974852_60976337_911_3pUTR_ENSMUSG00000042506_ENSMUST00000041683|mouse|control|control (ssRNA)
RNA: GGGAGUUCUACAGUCCGACGAUCGAGGAACUCAUGUGCGUCCUGCUGCUCAUAACCCGCCAGGUGCCGGGCGUGCGUCCACACCAGGUGCAGCAGCUUGUAUGGAAUGUGUGGGGAGCGGUGCCCUGAGUAAAACUCCUGGAACAACAGAGGAUUGAGCAUCA
B7: chr21:30439091:30439092:-_ENSG00000156261_ENST00000286788|hu_mus|FALSE|FALSE (ssRNA)
RNA: GGGAGUUCUACAGUCCGACGAUCCAGAAUCUUACAUACUCUGAUGUUAUCAACAUUGAAAUUGCCAGAAUCAGGAAAGAUAGAAACACAAGCCUGAGCAAUAAGCUUGGCCAAAAACGUCUCGCUGCCGUACUGCUUACUCAUCAACAGAGGAUUGAGCAUCA
B8: chr17:60770872:60770873:+_ENSG00000011028_ENST00000303375|hu_hu|hu_hu_hu_mus_True|88_98 (ssRNA)
RNA: GGGAGUUCUACAGUCCGACGAUCUCUUUAAAAAAAAUUCCUUUUUUUUUAAAAACAAUAGCACAUUUCGAGAAUCAAGAACUACAAUAGAGGGUCCGCUUUGAGUUUUUGUUCACAUCGUCCUGCACUGGGACACGGGGACUGCAACAGAGGAUUGAGCAUCA
B9: chr12:39763582:39763583:-_ENSG00000139116_ENST00000544797|hu_hu|motif|central (ssRNA)
RNA: GGGAGUUCUACAGUCCGACGAUCCUCUAAGAAUUGGGCAUUCACUUUAAAAUCUGGAGCAGGAAGCCCAUUUUUAAUUGCGGUGUGUUUUUUUUCUUCAAUACUCUUAAAAAGGUGUUUAACAGCUCGAGAAAUAAUACCCAGCAACAGAGGAUUGAGCAUCA
B10: chr15:88994910:88994911:-_ENSMUSG00000036606_ENSMUST00000109331|mus_mus|FALSE|FALSE (ssRNA)
RNA: GGGAGUUCUACAGUCCGACGAUCGUUCUCCACCAGGCUCAUGGCCUCACGGCAGUCAUAGAAGGGAUACUGGUGGGAGGUGAGGAAGACACUGCCGCUUUUUAAGAGGAGCUGGAUGCUCACGUCAACAUGGUCUUGGCCUGGCAACAGAGGAUUGAGCAUCA
B11: chr16:94637918:94637919:+_ENSMUSG00000040785_ENSMUST00000117648|mus_mus|FALSE|FALSE (ssRNA)
RNA: GGGAGUUCUACAGUCCGACGAUCAUCCUGGUGUGCAGCUCUGGAAGAUUUUGAAAACUGUUUCUCCAAAAUGCUUUUCAAAUCUACUUGUAAACUCACUUCUGAAUUAGAACUGGGCUUUUCUGAUUCAUUGUUUCGUGAUUUCAACAGAGGAUUGAGCAUCA
B12: chr7:135612270:135612271:-_ENSG00000105887_ENST00000393085|hu_mus|hu_hu_hu_mus_False|78_108 (ssRNA)
RNA: GGGAGUUCUACAGUCCGACGAUCGUUUCUGAGAUGUAUGUUAAAUAGUACUUCAGUAACAAAACUUACUUAACCUUUUAUUAAUGCGUGUUGUACCAAAAGCAGACAUUUUAGCUUCAUUUAUUCAAAAAUAUUAACAUUAAGCAACAGAGGAUUGAGCAUCA
B13: chr6:75947695:75947696:-_ENSG00000112695_ENST00000509698|hu_mus|FALSE|FALSE (ssRNA)
RNA: GGGAGUUCUACAGUCCGACGAUCACGACAUUAGUUCUGCUUCUUGGGAAAUGCAGCCAUAGCUAACAGAUAGAUGGCAUAGGCUGUGCCACCAAGCGUCAGAGCCAUUGUGGCUCUGUAGAGGAGGGCAUCAGAUGCCCCGCCCAACAGAGGAUUGAGCAUCA
B14: chr2:216981417:216981418:+_ENSG00000079246_ENST00000392132|hu_hu|hu_hu_hu_mus_True|1_58 (ssRNA)
RNA: GGGAGUUCUACAGUCCGACGAUCCUGAUACUGGUCCUUGCCAGCAAGGGCAUUAUCAGUGCCAUCUGUGCCAUAGAGGACUAAAGCAAUCUCAUCUUUGCUCUCCGAAAAUACCUGUCGUUGGACAAACAUAGUCAUCACCUUCAACAGAGGAUUGAGCAUCA
B15: chr7:151048522:151048523:+_ENSG00000013374_ENST00000566856|hu_mus|hu_hu_hu_mus_True|8_8 (ssRNA)
RNA: GGGAGUUCUACAGUCCGACGAUCCUGUUUCUUAUUUAUUACGAUCUUGAUGUAAUUUUCUUGAAAUCCGAAAGUUUCAGCUAUUUGACACCUCAGGUCUCUACCAGUGACAUGCAAGCGGGUCUCCAACAAGUUUUUCUUAUCCAACAGAGGAUUGAGCAUCA
B16: chr3:148802587:148802588:-_ENSG00000071794_ENST00000310053|hu_mus|hu_hu_hu_mus_False|8_8 (ssRNA)
RNA: GGGAGUUCUACAGUCCGACGAUCUCCAACAACUUGUCCUCUCAUAGUUCCAAAUAAAACCAAAUCUUGCUCUUCAUCACUCGUUAGGAAGUCAUCUGGAGGAAUAAUGUCUUGGAAUUCAAAAUGUGGAAAGAAAGUUGAGUACAACAGAGGAUUGAGCAUCA
B17: chr17:35122734:35122735:+_ENSMUSG00000007050_ENSMUST00000114011|mus_hu|FALSE|FALSE (ssRNA)
RNA: GGGAGUUCUACAGUCCGACGAUCCCAUCCCCAAAUGAAUCACAUGCUGCCCUGGAAAGACCUAGGAAACUCUCCUACCAUCUCCAGAGAAGUAGUGAGAAAGGCAGGUGCUGGGGACUGGGAAGGCUUUGAAGUUUCCCAGCCCAACAGAGGAUUGAGCAUCA
B18: chr7:151622947:151622948:-_ENSMUSG00000031078_ENSMUST00000033407|mus_mus|FALSE|FALSE (ssRNA)
RNA: GGGAGUUCUACAGUCCGACGAUCGAAGAGCCCGUAUCUGCCCUUGCACACCCCACGCCACCAGCCAUCGUCAAUCAUUUCUAUGUUGGUGAUGAUGUCAUCAGGGUCAAAGGAGAUCUCAUCAUCGCCAGCAGCCUGGUAGUCCAACAGAGGAUUGAGCAUCA
B19: 101970610_101970730_1729_CDS_ENSG00000158301_ENST00000332262|human|control|control (ssRNA)
RNA: GGGAGUUCUACAGUCCGACGAUCCUCCUCCCUGACUCUGGGCCUGAACAAGUUAUUGGUAUUUUCUCCAACCCAGAAGGAGAAUGGGUUGCUGGCCUCAUCCUCAGAUCCAGACCAGGAAUCAACAUAGGCUUCUUGCUUGGACAACAGAGGAUUGAGCAUCA
B20: chr3:118931466:118931467:-_ENSG00000121578_ENST00000480814|hu_hu|motif|central (ssRNA)
RNA: GGGAGUUCUACAGUCCGACGAUCACUGUGAUGUUGAUAUAUAAAGGAUUGUGUUCCACAGAUACUAAUUUAUAAGAACAACGGCUCAACCCAUCUGUUCUCCAGACUCGUGACACUUGGUGUAAGAGCUUCAUCCGUUCUGCGCAACAGAGGAUUGAGCAUCA
B21: chr9:69863160:69863161:+_ENSMUSG00000033543_ENSMUST00000118198|mus_mus|FALSE|FALSE (ssRNA)
RNA: GGGAGUUCUACAGUCCGACGAUCCUGUAUGAGCUCAUCAAGGCUCUCUUGAAGACUGUUCCCCAAAGUUGUAUUUCUGUAUAACUGAUAGGCCAUGGCUUAAAAGGAAGCAAUUACUUUUUCUUCAGGCUUGCAUUGAUGUCCCAACAGAGGAUUGAGCAUCA
B22: chr7:116558156:116558157:+_ENSG00000198898_ENST00000458284|hu_mus|FALSE|FALSE (ssRNA)
RNA: GGGAGUUCUACAGUCCGACGAUCGAGAAGGAACAGAGAGAGAGAGAAAGAAAGAGAGAGAGAGAGAGACUUCGAAAGGAGGAACAGAGUAAGAUACUUAUCUAAACUCAUGUCCAACCCUCUGAACAAAGGAAAUGGAACAGGCAACAGAGGAUUGAGCAUCA

This experiment has as its target T1, UNK ZnF1-3 (human, UniProt Q9C0B0 31-174).
T1 sequence: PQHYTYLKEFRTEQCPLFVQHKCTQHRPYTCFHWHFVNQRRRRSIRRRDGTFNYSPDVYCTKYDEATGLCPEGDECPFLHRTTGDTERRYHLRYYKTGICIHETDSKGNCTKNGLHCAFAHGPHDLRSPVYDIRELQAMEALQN
Kind of experiment: nsRBNS (natural sequence RNA bind-n-seq); RBNS binding buffer (assumed for nsRBNS): 25 mM Tris pH 7.5, 150 mM KCl, 3 mM MgCl2, 0.01% Triton X-100, 500 ug/ml BSA, 20 U/ml SUPERase-In, 4 C; UNK is unkempt and MSI1 is Musashi-1; names of the RNAs are library labels; protein concentration not given here; high values mean tight binding.
Take B1: the binding signal is 1.32 enrichment R.

Take B2: the binding signal was 0.717 enrichment R.

B3: the binding signal amounted to 0.308 enrichment R.

Consider B4, for which the binding signal amounted to 0.66 enrichment R.

The molecule B5 came in with a binding signal of 0.859 enrichment R.

Take B6: the binding signal amounted to 0.772 enrichment R.

Molecule B7 returned a binding signal of 1.21 enrichment R.

B8 yielded a binding signal of 1.13 enrichment R.

In the case of B9, the binding signal was determined as 2.36 enrichment R.

In the case of B10, the binding signal was found to be 1.26 enrichment R.

B11 yielded a binding signal of 0.581 enrichment R.

B12: the binding signal came to 0.741 enrichment R.

In the case of B13, the binding signal came to 0.95 enrichment R.

As for B14, the binding signal stood at 0.832 enrichment R.

Regarding B15, the binding signal amounted to 0.699 enrichment R.

Regarding B16, the binding signal was determined as 1.29 enrichment R.

The molecule B17 displayed a binding signal of 0.748 enrichment R.

Turning to B18, the binding signal was 1.12 enrichment R.

Turning to B19, the binding signal was determined as 0.696 enrichment R.

B20 showed a binding signal of 0.75 enrichment R.

The molecule B21 returned a binding signal of 0.917 enrichment R.

In the case of B22, the binding signal turned out to be 2.46 enrichment R.
